Substitutions are numbered along the chain they refer to. Names may count otherwise. Results are given in words; binding and its absence hold for the method and conditions named. For some of these results: In cells and extracts the contact can be indirect. Some entries that bind do so weakly or less than the wild type. For some of these results: Sequences can lack the tags named with a protein. One block for each binder: values may come before it.
What was measured:
[1] = target: T1, recombinant GST-tagged Irga6, wild type (mouse) (UniProt Q9QZ85); test: condition: only with 0.5 mM mant-GDP in place of GDP; pull-down; GST-Irga6 bound to glutathione Sepharose 4B, incubated overnight at 4°C with postnuclear supernatant of IFNγ-induced gs3T3 cells (PBS/0.1% Thesit/3 mM MgCl2) with 0.5 mM mant-GDP; Western blot; only the target purified
T1 sequence: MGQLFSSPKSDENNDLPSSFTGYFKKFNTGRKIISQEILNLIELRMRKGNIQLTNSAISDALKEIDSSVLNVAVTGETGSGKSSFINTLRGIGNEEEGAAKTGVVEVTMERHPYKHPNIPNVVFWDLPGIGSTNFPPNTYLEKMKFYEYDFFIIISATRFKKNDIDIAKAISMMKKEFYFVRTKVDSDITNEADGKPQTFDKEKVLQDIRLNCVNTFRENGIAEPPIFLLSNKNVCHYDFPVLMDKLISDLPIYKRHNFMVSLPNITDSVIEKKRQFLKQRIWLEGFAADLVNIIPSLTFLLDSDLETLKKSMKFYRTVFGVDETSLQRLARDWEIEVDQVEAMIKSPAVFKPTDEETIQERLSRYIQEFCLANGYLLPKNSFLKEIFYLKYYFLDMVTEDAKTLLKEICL

[2] = target: T1, recombinant GST-tagged Irga6, wild type (mouse); test: pull-down; GST-Irga6 bound to glutathione Sepharose 4B, incubated overnight at 4°C with postnuclear supernatant of IFNγ-induced gs3T3 cells (PBS/0.1% Thesit/3 mM MgCl2) with 0.5 mM GDP; Western blot; only the target purified
[3] = target: Irga6-E77A (mouse) (UniProt Q9QZ85); test: light scattering; self-association (oligomerisation) of 80 μM Irga6 with 10 mM GTP at 37°C; B1 buffer (50 mM Tris/HCl pH 7.4, 5 mM MgCl2)/2 mM DTT; conventional light scattering at 350 or 600 nm; both purified
[4] = target: Irga6-D164N (mouse) (UniProt Q9QZ85); test: dynamic light scattering; self-association (oligomerisation) of 80 μM Irga6 mutant proteins with 10 mM GTP (GDP as comparison), DLS at 650 nm, 37°C (Asp164 mutants 20°C or 37°C); B1 buffer/2 mM DTT; both purified
[5] = target: Irga6-E106K (mouse) (UniProt Q9QZ85); test: as above
[6] = target: Irga6-K196D (mouse) (UniProt Q9QZ85); test: light scattering; self-association (oligomerisation) of 80 μM Irga6 with 10 mM GTP at 37°C; B1 buffer (50 mM Tris/HCl pH 7.4, 5 mM MgCl2)/2 mM DTT; conventional light scattering at 350 or 600 nm; both purified
[7] = target: Irga6-D186N (mouse) (UniProt Q9QZ85); test: light scattering; self-association of 80 μM Irga6-D186N with 10 mM GTP and 1 mM XTP added, 37°C; both purified
[8] = target: Irga6-N191R (mouse) (UniProt Q9QZ85); test: light scattering; self-association (oligomerisation) of 80 μM Irga6 with 10 mM GTP at 37°C; B1 buffer (50 mM Tris/HCl pH 7.4, 5 mM MgCl2)/2 mM DTT; conventional light scattering at 350 or 600 nm; both purified
[9] = target: Irga6 (IIGP1), wild type, recombinant, GST cleaved off (mouse) (UniProt Q9QZ85); test: light scattering + other: dynamic light scattering; Irga6 in the presence of GDP at 37°C; B1 buffer/2 mM DTT; both purified
[10] = target: Irga6 (IIGP1), wild type, recombinant, GST cleaved off (mouse) (UniProt Q9QZ85); test: light scattering + other: dynamic light scattering; self-association of 80 μM WT Irga6 with 10 mM 3'dGTP at 37°C; both purified
[11] = target: Irga6 (IIGP1), wild type, recombinant, GST cleaved off (mouse) (UniProt Q9QZ85); test: condition: only with 10 mM mant-GTP in place of GTP; light scattering; self-association of 80 μM WT Irga6 with 10 mM mant-GTP at 37°C; both purified
[12] = target: Irga6 (IIGP1), wild type, recombinant, GST cleaved off (mouse) (UniProt Q9QZ85); test: condition: only with 10 mM 2'3'ddGTP in place of GTP; light scattering + other: dynamic light scattering; self-association of 80 μM WT Irga6 with 10 mM 2'3'ddGTP at 37°C; both purified
[13] = target: Irga6-R159E (mouse) (UniProt Q9QZ85); test: light scattering; self-association (oligomerisation) of 80 μM Irga6 with 10 mM GTP at 37°C; B1 buffer (50 mM Tris/HCl pH 7.4, 5 mM MgCl2)/2 mM DTT; conventional light scattering at 350 or 600 nm; both purified
[14] = target: Irga6-K161E (mouse) (UniProt Q9QZ85); test: as above
[15] = target: T1, recombinant GST-tagged Irga6, wild type (mouse); test: pull-down; GST-Irga6 bound to glutathione Sepharose 4B, incubated overnight at 4°C with postnuclear supernatant of IFNγ-induced gs3T3 cells (PBS/0.1% Thesit/3 mM MgCl2) with 0.5 mM GTPγS; Western blot; only the target purified

binding [1]: no binding
binding [2]: binds
B1: Irgm3 (IGTP) (protein, UniProt Q9DCE9 1-423)
chain: MDLVTKLPQNIWKTFTLFINMANYLKRLISPWSKSMTAGESLYSSQNSSSPEVIEDIGKAVTEGNLQKVIGIVKDEIQSKSRYRVKIAVTGDSGNGMSSFINALRFIGHEEEDSAPTGVVRTTKKPACYSSDSHFPYVELWDLPGLGATAQSVESYLEEMQISTFDLIIIVASEQFSSNHVKLAITMQRMRKRFYVVWTKLDRDLSTSTFPEPQLLQSIQRNIRENLQQAQVRDPPLFLISCFSPSFHDFPELRNTLQKDIFSIRYRDPLEIISQVCDKCISNKAFSLKEDQMLMKDLEAAVSSEDDTANLERGLQTYQKLFGVDDGSLQQVARSTGRLEMGSRALQFQDLIKMDRRLELMMCFAVNKFLRLLESSWWYGLWNVVTRYFRHQRHKLVIEIVAENTKTSLRKALKDSVLPPEIH

binding [3]: no binding (tested: 80 μM)
B2: Irga6-E77A (enzyme, UniProt Q9QZ85 1-411)
chain: T1 sequence with E77A

binding [4]: no binding (tested: 80 μM)
B3: Irga6-D164N (enzyme, UniProt Q9QZ85 1-411)
chain: T1 sequence with D164N

binding [5]: no binding (tested: 80 μM)
B4: Irga6-E106K (enzyme, UniProt Q9QZ85 1-411)
chain: T1 sequence with E106K

B5: Irga6-K196D (enzyme, UniProt Q9QZ85 1-411)
chain: T1 sequence with K196D
binding [6]: no binding (tested: 80 μM)

B6: Irga6-D186N (enzyme, mouse)
chain: T1 sequence with D186N
notes: Irga6 (IIGP1), mouse; mutant made in pGEX-4T-2-Irga6; also called G4-motif mutant; source: E. coli BL21, purified (glutathione Sepharose, GST cleaved off with thrombin, Superdex 75); not shown: GST, N-terminal, cleaved
binding [7]: no binding (condition: with 1 mM XTP added to 10 mM GTP)

binding [8]: no binding (tested: 80 μM)
B7: Irga6-N191R (enzyme, UniProt Q9QZ85 1-411)
chain: T1 sequence with N191R

binding [11]: no binding
binding [12]: no binding
B8: Irga6 (IIGP1), wild type, recombinant, GST cleaved off (enzyme, mouse)
chain: T1 sequence
notes: Irga6 (IIGP1), mouse immunity-related GTPase; also called WT Irga6; source: E. coli BL21, purified (glutathione Sepharose, GST cleaved off with thrombin, Superdex 75); not shown: GST, N-terminal, cleaved
binding [9]: no binding (condition: with GDP in place of GTP)
binding [10]: no binding (condition: with 10 mM 3'dGTP in place of GTP)

binding [13]: no binding (tested: 80 μM)
B9: Irga6-R159E (enzyme, UniProt Q9QZ85 1-411)
chain: T1 sequence with R159E

binding [14]: no binding (tested: 80 μM)
B10: Irga6-K161E (enzyme, UniProt Q9QZ85 1-411)
chain: T1 sequence with K161E

binding [15]: binds
B11: Irgb6 (TGTP) (protein, UniProt Q62293 1-415)
chain: MAWASSFDAFFKNFKRESKIISEYDITLIMTYIEENKLQKAVSVIEKVLRDIESAPLHIAVTGETGAGKSTFINTLRGVGHEEKGAAPTGAIETTMKRTPYPHPKLPNVTIWDLPGIGTTNFTPQNYLTEMKFGEYDFFIIISATRFKENDAQLAKAIAQMGMNFYFVRTKIDSDLDNEQKFKPKSFNKEEVLKNIKDYCSNHLQESLDSEPPVFLVSNVDISKYDFPKLETKLLQDLPAHKRHVFSLSLQSLTEATINYKRDSLKQKVFLEAMKAGALATIPLGGMISDILENLDETFNLYRSYFGLDDASLENIAQDLNMSVDDFKVHLRFPHLFAEHNDESLEDKLFKYIKHISSVTGGPVAAVTYYRMAYYLQNLFLDTAANDAIALLNSKALFEKKVGPYISEPPEYWEA
binding [2]: no binding (condition: with 0.5 mM GDP in place of GTPγS)

Reference: paper PMC3042988, “The activation mechanism of Irga6, an interferon-inducible GTPase contributing to mouse resistance against Toxoplasma gondii” (BMC Biology, 2011)
